This assay concerns the target Nonstructural protein 3 (Zika virus) (UniProt A0A024AXB9).
[1] abbreviates: PRVABC59, Concentration 15.0 uM, Number of replicates 1.0.
Setting [2] is: PRVABC59, Concentration 50.0 uM, Number of replicates 1.0.

The whole screen tested about 2,700 compounds, of which about 160 (5.9%) showed an effect of 50% or more. Some of the results follow.

The results in this text go back to ChEMBL document CHEMBL5606458, “ASAP - ZIKV NS2B-NS3 protease fluorescence single point” (2024).

Usually inhibition stands for the change of the read-out against control, counted positive when it falls.

Sequence of UniProt A0A024AXB9 (A0A024AXB9 as listed by the source): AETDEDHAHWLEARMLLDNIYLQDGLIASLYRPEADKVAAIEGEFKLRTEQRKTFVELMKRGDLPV

Consider `O=C(c1cc(Cl)ccc1NS(=O)(=O)c1ccc(Oc2ccccc2Cl)cc1)N1CCC(Oc2ccccc2C(F)(F)F)CC1`, for which the inhibition under setting [1] is 12%.

For the molecule `COc1cc2c(cc1NC(=O)C1CCN(c3ccc(C=O)cc3)CC1)oc1ccccc12`, the inhibition under setting [2] worked out at 22.2%.

Regarding `Cc1cc(CO)c2cccc(NC(=O)c3ccc(O)cc3)c2n1`, the inhibition by setting is: (PRVABC59, Concentration 49.95 uM, Number of replicates 2.0, Standard deviation 1.6158427369500596 %) 6.25%; (PRVABC59, Concentration 99.9 uM, Number of replicates 2.0, Standard deviation 2.664634356189213 %) 18.4%.

Turning to `NC(=O)C1(NC(=O)[C@]2(c3ccc(F)cc3)CCCNC2)CCOCC1`, the inhibition by setting is: (PRVABC59, Concentration 49.5 uM, Number of replicates 2.0, Standard deviation 2.6620442637608246 %) 0.389%; (PRVABC59, Concentration 99.01 uM, Number of replicates 2.0, Standard deviation 3.20139933861607 %) -3.33%; (PRVABC59, Concentration 198.0 uM, Number of replicates 2.0, Standard deviation 2.412796905386676 %) -3.16%.

As to `Cn1cc(NC(=O)c2ccccc2C(F)(F)F)c(-c2ccc(F)nc2)n1`, the inhibition is -2.94% (PRVABC59, Concentration 49.5 uM, Number of replicates 2.0, Standard deviation 3.7021868860702094 %); -1.07% (PRVABC59, Concentration 99.01 uM, Number of replicates 2.0, Standard deviation 2.942135191637428 %); -1.47% (PRVABC59, Concentration 198.0 uM, Number of replicates 2.0, Standard deviation 0.6047722099533683 %).

On to `C[C@H]1CN(Cc2ccccc2)CCN1C(=O)C1CCN(c2ccc(C=O)cc2)CC1`, for which the inhibition under setting [2] amounted to 27.6%.

With `COc1nccc(-c2nn(C)cc2NC(=O)c2ccccc2C(F)(F)F)c1F`, the inhibition is -2.15% (PRVABC59, Concentration 49.5 uM, Number of replicates 2.0, Standard deviation 0.9155406487492931 %); 0.421% (PRVABC59, Concentration 99.01 uM, Number of replicates 2.0, Standard deviation 1.9246139630355987 %); 2.07% (PRVABC59, Concentration 198.0 uM, Number of replicates 2.0, Standard deviation 3.811455288233007 %).

Regarding `O=C(NCCc1cccc(Br)c1)c1cc(Cl)ccc1NS(=O)(=O)c1ccc(Oc2ccccc2Cl)cc1`, the inhibition under setting [1] is 25.4%.

In the case of `COc1cccc(OCCCNC(=O)C2CCN(c3ccc(C=O)cc3)CC2)c1`, the inhibition under setting [2] was 9.81%.

Regarding `C[C@@H](c1ccccc1)N(CC1CC1)C(=O)c1cc(Cl)ccc1NS(=O)(=O)c1ccc(Oc2ccccc2Cl)cc1`, under setting [1], the inhibition was determined as 22.3%.

For the molecule `O=Cc1ccc(N2CCC(C(=O)N3CCC(C(F)(F)F)CC3)CC2)cc1`, under setting [2], the inhibition amounted to 26.2%.

As for `COc1ccc(S(=O)(=O)n2nc(OC(=O)c3ccccc3)cc2N)cc1`, the inhibition by setting is: (PRVABC59, Concentration 49.5 uM, Number of replicates 2.0, Standard deviation 0.018531126353269887 %) 99.1%; (PRVABC59, Concentration 99.01 uM, Number of replicates 2.0, Standard deviation 0.03874003445206144 %) 99.1%; (PRVABC59, Concentration 198.0 uM, Number of replicates 2.0, Standard deviation 0.035373681367799316 %) 99%.

Regarding `CC(C)(C)N(Cc1cccnc1)C(=O)c1cc(Cl)ccc1NS(=O)(=O)c1ccc(Oc2ccccc2Cl)cc1`, the inhibition under setting [1] stood at 21.6%.

Consider `O=C(c1ccn([C@H]2CCCNC2)n1)N1CC[C@H](c2cc(O)[nH]n2)C1`, for which the inhibition was -0.872% (PRVABC59, Concentration 49.5 uM, Number of replicates 2.0, Standard deviation 3.310524778668719 %); -0.283% (PRVABC59, Concentration 99.01 uM, Number of replicates 2.0, Standard deviation 4.319681080099742 %); -1.9% (PRVABC59, Concentration 198.0 uM, Number of replicates 2.0, Standard deviation 0.2522890964311802 %).

As to `O=Cc1ccc(N2CCC(C(=O)Nc3cc(Cl)nc(Cl)n3)CC2)cc1`, the inhibition under setting [2] came out at 17.4%.

Consider `O=C(NC1(c2cccc(F)c2)CC1)c1cc(Cl)ccc1NS(=O)(=O)c1ccc(Oc2ccccc2Cl)cc1`, for which the inhibition under setting [1] stood at 30.5%.

For the molecule `CC(=O)Nc1ccc(NC(=O)C2CCN(c3ccc(C=O)cc3)CC2)cc1`, the inhibition under setting [2] worked out at 11.4%.

On to `CN(CCC=C1c2ccccc2CCc2ccccc21)C(=O)c1cc(Cl)ccc1NS(=O)(=O)c1ccc(Oc2ccccc2Cl)cc1`, for which, under setting [1], the inhibition stood at 2.51%.

With `CN(CCc1ccccc1F)C(=O)C1CCN(c2ccc(C=O)cc2)CC1`, the inhibition under setting [2] stood at 25.8%.

For the molecule `Cc1ccc(CN(C(=O)c2cc(Cl)ccc2NS(=O)(=O)c2ccc(Oc3ccccc3Cl)cc2)C2CC2)s1`, the inhibition under setting [1] worked out at 15.2%.

Regarding `O=Cc1ccc(N2CCC(C(=O)Nc3ncnc(Cl)c3Cl)CC2)cc1`, under setting [2], the inhibition is 17.7%.

Take `O=C(Nc1ncnc2c1ncn2CCO)c1cc(Cl)ccc1NS(=O)(=O)c1ccc(Oc2ccccc2Cl)cc1`: the inhibition under setting [1] is 20.6%.

In the case of `O=C(Nc1nnc(Cl)cc1Br)c1cc(Cl)ccc1NS(=O)(=O)c1ccc(Oc2ccccc2Cl)cc1`, the inhibition under setting [1] worked out at 24.2%.

On to `O=C(c1cc(Cl)ccc1NS(=O)(=O)c1ccc(Oc2ccccc2Cl)cc1)N1CCN(c2nccs2)CC1`, for which the inhibition under setting [1] came to 14.1%.

Turning to `CC(C)(CO)NC(=O)c1cc(Cl)cc(OCc2ccccn2)c1`, the inhibition reads like this: (PRVABC59, Concentration 49.5 uM, Number of replicates 2.0, Standard deviation 3.4081981191908355 %) -2.68%; (PRVABC59, Concentration 99.01 uM, Number of replicates 2.0, Standard deviation 2.4351306047062957 %) -2.68%; (PRVABC59, Concentration 198.0 uM, Number of replicates 2.0, Standard deviation 3.659259520071742 %) -0.396%.

As for `CC(C)(CNC(=O)c1cc(Cl)ccc1NS(=O)(=O)c1ccc(Oc2ccccc2Cl)cc1)c1cccc(Cl)c1`, the inhibition under setting [1] worked out at 47.6%.

Consider `CCN(CCNC(=O)C1CCN(c2ccc(C=O)cc2)CC1)c1cccc(C)c1`, for which the inhibition under setting [2] is 21.9%.

With `Cc1cc(CO)c2cccc(NC(=O)c3nc(N)n[nH]3)c2n1`, the inhibition was 28.9% (PRVABC59, Concentration 49.95 uM, Number of replicates 2.0, Standard deviation 1.6810779662500097 %) and 60.8% (PRVABC59, Concentration 99.9 uM, Number of replicates 2.0, Standard deviation 2.6897269039186593 %).

Consider `O=C(Nc1ccc(Oc2ccc(Cl)cc2)cc1)c1cc(Cl)ccc1NS(=O)(=O)c1ccc(Oc2ccccc2Cl)cc1`, for which the inhibition under setting [1] turned out to be 14.2%.

Turning to `CN(C(=O)OC(C)(C)C)[C@H]1CCN(C(=O)C2CCN(c3ccc(C=O)cc3)CC2)C1`, the inhibition under setting [2] came out at 18.8%.

Turning to `COc1cc(Cc2ccc3c(c2)NC(=O)CO3)nc(N2CCNCC2)n1`, the inhibition worked out at 2.01% (PRVABC59, Concentration 49.5 uM, Number of replicates 2.0, Standard deviation 1.5078451044167143 %); 4.72% (PRVABC59, Concentration 99.01 uM, Number of replicates 2.0, Standard deviation 1.992324518895442 %); 10.8% (PRVABC59, Concentration 198.0 uM, Number of replicates 2.0, Standard deviation 1.6814286280296202 %).

Regarding `Cc1cc(CO)c2cccc(Cc3ccccc3C(=O)N3CC[C@@H](O)C3)c2n1`, the inhibition was -8.95% (PRVABC59, Concentration 49.95 uM, Number of replicates 2.0, Standard deviation 0.18876460771228748 %) and -7.58% (PRVABC59, Concentration 99.9 uM, Number of replicates 2.0, Standard deviation 1.2164824655212059 %).

Consider `CN(C[C@H](O)c1ccc(O)cc1)C(=O)c1cc(Cl)ccc1NS(=O)(=O)c1ccc(Oc2ccccc2Cl)cc1`, for which, under setting [1], the inhibition stood at 6.47%.

Turning to `C[C@@H](c1ccccc1)N(CC1CC1)C(=O)C1CCN(c2ccc(C=O)cc2)CC1`, the inhibition under setting [2] turned out to be 24.9%.

`O=C(NCc1noc(-c2ccco2)n1)c1cc(Cl)ccc1NS(=O)(=O)c1ccc(Oc2ccccc2Cl)cc1`: the inhibition under setting [1] was found to be 48.1%.

In the case of `Cc1cc(CO)c2cccc(NC(=O)CC3CNC3)c2n1`, the inhibition reads like this: (PRVABC59, Concentration 49.95 uM, Number of replicates 2.0, Standard deviation 1.5957700474656553 %) -6.72%; (PRVABC59, Concentration 99.9 uM, Number of replicates 2.0, Standard deviation 1.1039918524960535 %) -6.98%.

Consider `CC(C)N(C[C@H](O)COc1cccc2ccccc12)C(=O)C1CCN(c2ccc(C=O)cc2)CC1`, for which the inhibition under setting [2] came out at 26.7%.

As to `O=Cc1ccc(N2CCC(C(=O)Nc3c(F)cc(F)cc3Cl)CC2)cc1`, the inhibition under setting [2] turned out to be 23.6%.

On to `O=C1CC2(CCN(C(=O)c3cc(Cl)ccc3NS(=O)(=O)c3ccc(Oc4ccccc4Cl)cc3)CC2)CN1`, for which the inhibition under setting [1] was -1.87%.

Turning to `COc1cc(C(=O)NCc2ccccc2)nc(N2CCNCC2)n1`, the inhibition (PRVABC59, Concentration 49.5 uM, Number of replicates 2.0, Standard deviation 2.737889624998604 %) was -0.457%; the inhibition (PRVABC59, Concentration 99.01 uM, Number of replicates 2.0, Standard deviation 3.0534651647482876 %) came out at 0.049%; the inhibition (PRVABC59, Concentration 198.0 uM, Number of replicates 2.0, Standard deviation 2.478899938297465 %) was 0.696%.

On to `O=C(NCc1ccc2c(c1)OCCO2)c1cc(Cl)ccc1NS(=O)(=O)c1ccc(Oc2ccccc2Cl)cc1`, for which, under setting [1], the inhibition turned out to be 24.8%.

As to `O=C(c1cc(Cl)ccc1NS(=O)(=O)c1ccc(Oc2ccccc2Cl)cc1)N1CCN(Cc2ccc(Cl)nc2)CC1`, the inhibition under setting [1] was found to be 12.8%.
